The values that follow come from publication PMC4336329 (PLoS ONE, 2015).

The whole screen tested about 310,000 compounds, of which about 14,000 (4.5%) showed an effect of 50% or more. Effects have a minus sign here. This is one part of the list.
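Also: peak tail current of the secondary pulse compared with the same well before compound.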

The target in the assay is human ether-à-go-go-related gene (hERG) potassium channel (human, UniProt Q12809). As to the kind of experiment: primary screen, population patch clamp on CHO cells stably expressing hERG.
human ether-à-go-go-related gene (hERG) potassium channel, sequence (Q12809 whole entry, looked up): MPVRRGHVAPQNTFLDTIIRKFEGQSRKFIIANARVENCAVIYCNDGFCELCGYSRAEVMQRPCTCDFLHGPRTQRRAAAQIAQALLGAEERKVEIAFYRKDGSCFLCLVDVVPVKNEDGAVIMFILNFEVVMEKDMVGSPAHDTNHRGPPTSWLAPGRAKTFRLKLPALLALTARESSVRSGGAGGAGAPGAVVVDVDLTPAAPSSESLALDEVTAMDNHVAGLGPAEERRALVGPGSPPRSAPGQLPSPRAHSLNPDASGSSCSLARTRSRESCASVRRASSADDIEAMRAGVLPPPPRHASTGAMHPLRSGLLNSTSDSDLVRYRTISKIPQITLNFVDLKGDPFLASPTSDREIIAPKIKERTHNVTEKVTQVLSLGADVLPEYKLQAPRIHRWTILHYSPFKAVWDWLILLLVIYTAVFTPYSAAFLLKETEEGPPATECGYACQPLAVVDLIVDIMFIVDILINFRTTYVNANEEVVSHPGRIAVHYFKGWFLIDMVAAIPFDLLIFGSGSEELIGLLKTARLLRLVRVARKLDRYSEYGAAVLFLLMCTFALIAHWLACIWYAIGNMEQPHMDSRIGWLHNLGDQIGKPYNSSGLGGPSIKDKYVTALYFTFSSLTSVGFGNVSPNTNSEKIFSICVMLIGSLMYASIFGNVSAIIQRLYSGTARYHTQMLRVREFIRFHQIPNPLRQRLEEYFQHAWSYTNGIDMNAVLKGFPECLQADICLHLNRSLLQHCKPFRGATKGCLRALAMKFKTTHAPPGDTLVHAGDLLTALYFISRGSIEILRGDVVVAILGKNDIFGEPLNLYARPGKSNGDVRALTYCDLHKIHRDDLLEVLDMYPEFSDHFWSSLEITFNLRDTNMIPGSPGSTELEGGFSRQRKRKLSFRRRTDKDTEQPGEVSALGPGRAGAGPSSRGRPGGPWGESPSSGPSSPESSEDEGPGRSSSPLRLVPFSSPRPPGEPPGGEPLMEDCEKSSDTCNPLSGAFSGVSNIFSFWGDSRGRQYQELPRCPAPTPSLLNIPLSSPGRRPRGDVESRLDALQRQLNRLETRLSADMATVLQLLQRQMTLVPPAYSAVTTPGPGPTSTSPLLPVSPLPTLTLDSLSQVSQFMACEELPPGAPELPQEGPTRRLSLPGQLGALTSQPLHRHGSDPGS
As to `CC(C)(C)C(=O)NCCN1CCN(C(=O)C(C)(C)C)CC1`, the “hERG current change (%, negative = inhibition) at 10uM” value is reported as -14.7%.
Regarding `CSc1nnc(Cc2sc(-c3ccccc3)nc2-c2ccccc2)o1`, the “hERG current change (%, negative = inhibition) at 10uM” value was determined as 12.4%.
The result for `COc1ccc(/C=C(/NC(=O)c2ccc(OC)cc2)C(=O)NCCc2c[nH]c3ccccc23)cc1` reads -28.8%.
The result for `COC(=O)c1[nH]c2ccc(F)cc2c1NS(=O)(=O)c1ccc(F)c(C)c1` reads 0.344%; that for `COc1ccccc1C(=O)NC(C)c1nc2ccccc2[nH]1` (stereo not shown), 17.9%.
The result for `CCN(CC)CCNC(=O)c1cc(-c2ccc(Br)s2)nc2ccccc12` reads -9.2%; that for `Cc1sc2nc(CN(C(=O)c3cccs3)C3CCCC3)[nH]c(=O)c2c1C`, -6.27%; that for `O=C1c2ccccc2C(=O)C1(O)O`, 19.9%.
Take `N#Cc1ccc(NC(=O)c2cc(S(=O)(=O)N3CCOCC3)ccc2N2CCCC2)cc1`: the “hERG current change (%, negative = inhibition) at 10uM” value is -80.4%.
Consider `Cc1ccnc(NC(=O)/C=C/c2ccccc2Cl)c1`, for which the “hERG current change (%, negative = inhibition) at 10uM” value is 1.32%.
The result for `O=C(NCC1COc2ccccc2O1)c1cn(Cc2ccc(F)cc2)nn1` (stereo not shown) reads -1.37%; that for `COCCCNC(=O)c1c(N)n(/N=C/c2cccnc2)c2nc3ccccc3nc12`, 10.1%.
Regarding `Cc1ccc(NC2c3ccccc3C(=O)N2c2cccnc2)cc1` (stereo not shown), the “hERG current change (%, negative = inhibition) at 10uM” value was -21.5%.
The value for `CC(NC(=O)C(NS(=O)(=O)c1cccs1)C(C)C)c1ccc(S(N)(=O)=O)cc1` (stereo not shown) was 5.75%.
As for `O=C1Nc2ccccc2OC1CC(=O)N1CCN(c2cccc(C(F)(F)F)c2)CC1` (stereo not shown), the “hERG current change (%, negative = inhibition) at 10uM” value is -44.2%.
The value for `COc1ccc(C)cc1NC(=O)CSc1nnc(COc2ccccc2)n1Cc1ccco1` was -9.46%; that for `C[C@H](NC(=O)c1ccco1)C(=O)NCc1cccs1` was 8.43%; that for `C=CCc1cc(Cl)ccc1OCCNCCN1CCOCC1.O=C(O)C(=O)O` was -46.5%.
In the case of `O=C(NC1CCCC1)c1ccc(CSc2nc3ccncc3n2Cc2ccc(F)cc2)cc1`, the “hERG current change (%, negative = inhibition) at 10uM” value was -40.7%.
Consider `CCN(CC)C(=O)c1cccc2nc3ccccc3nc12`, for which the “hERG current change (%, negative = inhibition) at 10uM” value was 7.06%.
The result for `COCCCNC(=S)NNC(=O)c1cc(-c2ccncc2)nc2ccccc12` reads 0.914%; that for `O=C1CCCC2=C1C1(O)C(=O)c3ccccc3C1(O)O2` (stereo not shown), 3.16%; that for `CCN(C(=O)c1ccc(Br)cc1)c1ccccc1`, -20.2%.
In the case of `CCOc1ccccc1N1CN(C2CCCCC2)CNC1=S`, the “hERG current change (%, negative = inhibition) at 10uM” value was found to be 14.2%.
The value for `COc1ccc(C(=O)Nc2cc(=O)n(C)c(=O)n2C)cc1OC` was 16%; that for `O=C(CN1CCN(Cc2ccccc2Cl)CC1)N=Nc1c(O)[nH]c2ccccc12` was -61.3%; that for `CCn1c(=O)c(C(=O)NCc2ccccc2OC)c(O)c2ccccc21` was 21.1%.
The value for `Cc1cc2c(c(SCC(=O)Nc3ccc(C)c(C)c3)n1)C(=O)OC2` was 15.1%; that for `Cc1ccccc1S(=O)(=O)Cc1ccc(C(=O)N(C)C2CCCCC2)o1` was -12.5%.
The result for `C/C(=N/NS(=O)(=O)c1ccc(C)cc1)c1c(O)c2ccccc2oc1=O` reads 4.66%; that for `COc1cc(NC(=O)NC(C)(C(F)(F)F)C(F)(F)F)cc(OC)c1OC`, 6.41%.
`O=C(O)CCCCNS(=O)(=O)/C=C/c1ccccc1`: the “hERG current change (%, negative = inhibition) at 10uM” value is listed as 13%.
For `O=C(COC(=O)C12CC3CC(CC(C3)C1)C2)Nc1nc2c(F)c(F)c(F)cc2s1`, the “hERG current change (%, negative = inhibition) at 10uM” value was found to be 28.8%.
Consider `O=C1c2cccc3c(N4CCCCC4)ccc(c23)C(=O)N1c1ccccc1O`, for which the “hERG current change (%, negative = inhibition) at 10uM” value amounted to 8.38%.
On to `COc1ccc(NC(=O)Nc2ccccc2C(N)=O)cc1`, for which the “hERG current change (%, negative = inhibition) at 10uM” value is listed as 19.2%.
The result for `C/C=C/C(=O)OCC(=O)Nc1ccc(OC)c(Cl)c1` reads -2.84%; that for `Cc1cccc(N(Cc2cc3ccccc3[nH]c2=O)C(=O)c2cccs2)c1`, 14.7%.
The value for `C#CCSc1ncc(S(=O)(=O)c2ccccc2)c(=O)[nH]1` was 6.67%; that for `CN(C(=O)COC(=O)c1cc2ccccc2cc1O)C1CCCCC1` was -4.72%; that for `O=C(O)CCCC(=O)N1N=C(c2c(-c3ccccc3)c3cc(Cl)ccc3[nH]c2=O)CC1c1cccs1` (stereo not shown) was 23.2%.
The value for `COc1ccccc1NS(=O)(=O)c1cccc2nsnc12` was -5.87%; that for `O=C(O)c1ccc(-[n+]2c(-c3ccccc3)cc(-c3ccccc3)cc2-c2ccccc2)cc1.[O-][Cl+3]([O-])([O-])[O-]` was 14.8%.
For the compound `Cc1ccc(-c2nnc(N3CCN(C(=O)COc4cccc(C)c4)CC3)c3ccccc23)cc1`, the “hERG current change (%, negative = inhibition) at 10uM” value is recorded as -54.6%.
As for `O=C(c1ccc(F)cc1F)C1CCN(c2ccc([N+](=O)[O-])cn2)CC1`, the “hERG current change (%, negative = inhibition) at 10uM” value is on record as -3.73%.
The result for `CCc1ccccc1-n1c(SCC(=O)N2CCCC2)nc2[nH]ncc2c1=O` reads -13.1%; that for `CCC(c1nnnn1Cc1ccc(OC)cc1)N(CCCO)Cc1cc2cc3c(cc2[nH]c1=O)OCO3` (stereo not shown), -5.01%; that for `CC(=O)NCC(=O)N(Cc1ccco1)C1(C(=O)NC2CCCC2)CCCCC1`, 4.93%.
The value for `CCCCCOc1ccc(OC(=O)c2ccncc2)cc1` was 11.5%; that for `COc1ccc(N(CC(=O)Nc2c(C)cccc2C)S(=O)(=O)c2ccccc2[N+](=O)[O-])c(OC)c1` was 5.86%; that for `Cc1cccc(NS(=O)(=O)c2ccc(C)c(C(=O)N(C)C)c2)c1` was 2.28%.
On to `CC(C)(C)C1CCC(=NNS(=O)(=O)c2ccc(Br)cc2)CC1` (stereo not shown), for which the “hERG current change (%, negative = inhibition) at 10uM” value was determined as 1.2%.
The result for `CCNC(=O)NC(=O)C(C)OC(=O)CCCSc1nc2ccccc2s1` (stereo not shown) reads -2.79%; that for `CC(=O)Nc1ccc(S(=O)(=O)N2CCN(c3nc4ccccc4n3CC(C)C)CC2)cc1`, -30.9%; that for `CCCN(CCC)S(=O)(=O)c1ccc(C(=O)Nc2ccc(OCC(=O)N3CCOCC3)cc2)cc1`, -4.31%.
As to `O=C1C2CCCC1C([NH+]1CCCC1)CC2.[Cl-]` (stereo not shown), the “hERG current change (%, negative = inhibition) at 10uM” value amounted to 11.2%.
